Source: ChEMBL document CHEMBL4888484, “Replenishing the malaria drug discovery pipeline: Screening and hit evaluation of the MMV Hit Generation Library 1 (HGL1) against asexual blood stage Plasmodium falciparum ,using a nano luciferase reporter read-out” (2022)
In all, about 150,000 compounds went through this assay and about 540 (0.36%) showed an effect of 50% or more. The list shows a part of the results.

System: Plasmodium falciparum
Assay: Primary screen in NF54 nanoGlo assay, in single point, at 2uM, 72h; a lower Z score goes with more inhibition
Format: functional, Erythrocyte
Details: timepoint 72 hour

| SMILES | % Inhibition [%] | Z score |
| --- | --- | --- |
| Cc1noc(C)c1COC(=O)c1nccnc1N | 0 | -0.04 |
| C[C@H](NCc1nnc(C2CC2)o1)c1ccc(-n2ccnn2)cc1 | -12 | 1.5 |
| CC(CC(O)c1ccco1)NC(=O)c1cc(Br)c[nH]1 (centres undefined) | -13 | 1.71 |
| O=C1CCCN1CCC(=O)N1CCO[C@@H](CCCc2ccccc2)C1 | -12 | 1.32 |
| Cc1cccc(N2CCN(C(=O)c3nnn(-c4ccc(Cl)cc4)c3C)CC2)c1C | 6 | -0.9 |
| CCCCS(=O)(=O)N1CCC[C@@H]1CCc1noc(-c2ccccn2)n1 | -10 | 1.56 |
| O=C(NCc1cc(-c2ccncc2)n(C2CCCC2)n1)Nc1cccs1 | -11 | 1.42 |
| CC(CCc1ccccc1)N1CCCC1Cn1cncn1 (centres undefined) | -5 | 0.71 |
| CC(=O)N[C@H]1CN(C(=O)CCn2ccccc2=O)C[C@@H]1c1ccc(C)cc1 | -3 | 0.46 |
| CN1C(=O)N(c2ccnn2C2CCC2)C(=O)C1(C)C | -13 | 1.28 |
| COc1ccc(CN2CCNC(=O)[C@@H]2CC(=O)NCc2ccon2)cc1OC | -19 | 2.44 |
| Cc1ccccc1-c1nc(OC(C)C)nn1-c1ccc(NC(=O)C2CCC2)cc1 | -4 | 0.63 |
| CCOc1ccc(-c2noc(CN3N=NC4C(=O)N(c5ccc(F)c(F)c5)C(=O)C43)n2)cc1OC (centres undefined) | 15 | -1.68 |
| CN[C@@H](C)C(=O)Nc1nn(Cc2ccccc2)c2cccc(Oc3cccnc3)c12 | 9 | -1.36 |
| CCc1ccc(CN2CCc3c(C(=O)N(C)CC(N)=O)csc3C2)nc1 | -10 | 1.94 |
| O=C1CCC(=O)N1CCCc1ccccc1Br | -14 | 1.41 |
| COc1csc(C(=O)Nc2ccnn2C2CCN(C)CC2)c1 | 1 | -0.2 |
| O=C1[C@H]2Cc3ccccc3CN2C(=O)CN1C1CCCCC1 | -6 | 1.08 |
| O=C(NCc1ccoc1)c1ccc(S(=O)(=O)NCC(F)F)cc1 | -9 | 0.86 |
| O=C(Nc1cc(Cl)ccc1Oc1ccc2ccccc2c1Cl)c1cc(Br)cc(Br)c1O | -1 | 0.14 |
| CC[C@@H](C(=O)N1CCc2[nH]nc(C3CC3)c2C1)n1cccn1 | 6 | -1.28 |
| Cc1c(Br)cccc1CCNC(=O)Cc1ccon1 | -6 | 0.93 |

| SMILES | % Inhibition [%] | Z score |
| --- | --- | --- |
| CCC1(CO)CCN(C(=O)NCC2CCC(C)(C)CC2)CC1 | -5 | 0.9 |
| Fc1ccc(-n2c(-c3ccncc3)nnc2-c2cccs2)cc1 | -28 | 3.31 |
| COc1ccc(S(=O)(=O)C2CCN(C(=O)Cn3cnc4ccccc43)CC2)cc1 | -8 | 1.01 |
| Cc1ccc(CN2CCCN(C(=O)Cn3nc(C)cc3C)CC2)cc1 | -9 | 1.17 |
| COc1ccc(N2CCN(C(=O)Cc3c(C)nn(-c4ccc(C)c(C)c4)c3C)CC2)cc1 | 1 | -0.09 |
| Cc1cc(NC(=O)c2cnccn2)sn1 | -2 | 0.43 |
| Cc1cc(S(=O)(=O)N(C)Cc2nccs2)sc1Cl | -2 | 0.25 |
| COc1ccccc1OC1(C(=O)O)CCN(Cc2ccc(C)o2)CC1 | -4 | 0.38 |
| COc1cccc(C(=O)N(CC(=O)Nc2nc(-c3ccccc3)cn2-c2ccc(C(F)(F)F)cc2)C2CC2)c1 | -12 | 1.82 |
| O=C(Cc1ccc(C(=O)Nc2nc(-c3ccccc3)cs2)cc1)c1ccccc1 | 30 | -1.09 |
| Cn1cc(C(=O)N2C[C@@H]3CC[C@H]2CN(C(=O)c2ccccn2)C3)cn1 | -7 | 1.04 |
| Clc1cccc2c1OCCN2Cc1cnc(C2CC2)s1 | -4 | 0.32 |
| Cc1ccc(NC(=O)C(=O)N2CCO[C@H](C3CCCCC3)C2)nc1 | -12 | 1.63 |
| C=CCCC(=O)N1CCC([C@H](C)NC(=O)OC(C)(C)C)CC1 | -3 | 0.35 |
| O=C(CNC(=O)OCc1ccccc1)NCc1ccc(C2CC2)nc1 | 13 | -1.6 |
| NS(=O)(=O)c1cccnc1NCC1CC1 | 14 | -1.64 |
| Cc1ccc(F)cc1-c1nnc(NS(C)(=O)=O)o1 | -35 | 4.11 |
| O=C(Nc1ccc(F)cc1F)c1ccc(C(=O)Nc2ccc(F)cc2F)s1 | -7 | 0.8 |
| C=CCN(C)c1nc(-c2cccnc2)nc2c1CCNC2 | -12 | 2.33 |
| CCc1nc2cc(N3CCC[C@H](C(=O)N(C)Cc4ccco4)C3)cnc2nc1CC | -7 | 1.29 |
| CCn1cc(C(=O)NCc2ccccc2CN(C)C(=O)OC(C)(C)C)c(C2CC2)n1 | 9 | -1.47 |
| O=C(Cn1c(-c2cccs2)cc2cc(F)ccc21)NCc1ccccc1F | 7 | -1.19 |

| SMILES | % Inhibition [%] | Z score |
| --- | --- | --- |
| COCC(=O)[C@H](C#N)c1ccc(Cl)cc1 | -11 | 1.66 |
| CCn1ncc(NC(=O)Cn2ncc3cc(-c4ccc(OC)nc4)ccc32)n1 | -7 | 1.35 |
| COc1cc(-c2cccc(C(=O)N3CCS(=O)(=O)CC3)c2)nc(OC)n1 | 9 | -1.14 |
| CN(C)C1(CNC(=O)Nc2ccccc2OCc2ccco2)CCOCC1 | -10 | 1.77 |
| CN(C(=O)CC1CC2CCC1C2)[C@H]1CS(=O)(=O)C[C@@H]1O (some centres undefined) | 15 | -1.71 |
| CN(C)C(=O)CNCc1ccc(C#CCO)s1 | -12 | 2.17 |
| COc1ccc(C)cc1NC(=O)c1c(C)cc(C)n1Cc1ccc(F)c(F)c1 | -5 | 0.96 |
| O=C([C@@H]1CCCc2[nH]ncc21)N1CCC2(CCC2)CC1 | -22 | 2.57 |
| CC(C)c1noc([C@H](C)NC(=O)CCC(=O)Nc2nncs2)n1 | 0 | -0.07 |
| O=C(c1ccc2c(=O)n3c(nc2c1)CCCCC3)N1CCCCCC1 | -6 | 1.15 |
| O=C(C1CCCC1)N1CCC[C@H]1c1ccncc1 | -10 | 1.22 |
| CCc1nnc(CNc2ccc(-c3cccc(F)c3)c(F)c2)o1 | -4 | 0.79 |
| CCC[C@H](O)CNC(=O)Nc1ccc(C)s1 | -6 | 1.11 |
| Cn1nnc2cc(-c3noc(-c4cn(-c5ccccc5)nc4-c4ccccc4)n3)ccc21 | -5 | 0.5 |
| C[C@@H](CN(C)c1nnc(-c2ccccn2)s1)C(=O)O | -11 | 1.45 |
| OCCc1ccc(Oc2cc(-c3ccccc3)nc3ncnn23)cc1 | 8 | -0.93 |
| O=C(Nc1ccn(CC(F)(F)F)n1)[C@H]1CCCOC1 | 7 | -1.2 |
| CC1CN(CCCNC(=O)c2ccco2)CC(C)O1 (centres undefined) | -6 | 1.03 |
| Cc1nn(C)c2nc(NCCc3nccs3)sc12 | 6 | -0.82 |
| Cn1cnnc1NC(=O)C1(c2ccc(Cl)c(Cl)c2)CCC1 | -17 | 3.6 |
| COc1cccc(CN2C[C@]34C=C[C@H](O3)C(C(=O)N3CCOCC3)C4C2=O)c1 (some centres undefined) | -21 | 1.94 |
| Cn1cc(S(=O)(=O)NCc2cncc(C3CC3)c2)cn1 | 21 | -2.36 |

| SMILES | % Inhibition [%] | Z score |
| --- | --- | --- |
| Cc1ccccc1-c1coc(-c2cccc(N)c2)n1 | -12 | 1.92 |
| CC[C@H]1C(=O)NCCN1Cc1cccc(C(=O)OC)n1 | 2 | -0.4 |
| O=C(C1CCCCCC1)N1CCC[C@H](c2cc(N3CCOCC3)ncn2)C1 | -10 | 1.75 |
| CCn1ncc(CN(C)c2cc(NCCO)ncn2)c1C | 0 | -0.03 |
| c1ccc(-c2onc3cc(Oc4ccc5c(-c6ccccc6)onc5c4)ccc23)cc1 | -9 | 1.76 |
| COc1ccc(OC)c(-c2csc(NC(=O)Cc3n[nH]c4c3CCCC4)n2)c1 | -12 | 1.73 |
| C[C@@]1(NC(=O)CCc2nc(C3CCCC3)no2)CC=CCC1 | -10 | 1.9 |
| c1cnc2c(Cc3noc(C4CCN(C5CC5)CC4)n3)cccc2c1 | -8 | 0.88 |
| CC(C(=O)NCC(c1ccsc1)N(C)C)n1cncn1 (centres undefined) | -8 | 1.17 |
| CCCOc1ccc(-c2nc3ccc(-c4ccc5c(c4)OCO5)cc3o2)cc1 | -8 | 1.28 |
| CC[C@H](C)NC(=O)c1nc(-c2ccnc(N3CCOCC3)c2)no1 | -11 | 1.51 |
| CCCCn1nc(-c2csc(C)n2)nc1CCOC | 1 | -0.21 |
| Cc1cc(=O)n(Cc2ccccc2F)c2cc(OCC(=O)NCC3CC3)ccc12 | -1 | 0.14 |
| Cc1cc(NS(=O)(=O)c2cn(C)nc2C)no1 | -2 | 0.31 |
| CC(C)(C)OC(=O)N1CCC[C@H]1c1ncc(Br)cn1 | -7 | 1.15 |
| COc1ccc(OCCOCCNC(C)C)cc1 | -6 | 1.1 |
| CCN1CCc2ccc(NC(=O)CNC)cc21 | -7 | 0.65 |
| COc1ccccc1NC(=O)C(=O)Nc1ccccn1 | -4 | 0.73 |
| O=C1NCC2(CCN(C(=O)c3cc4ccccc4s3)CC2)O1 | -8 | 0.86 |
| COC(=O)[C@@H]1C[C@@H](n2ccnc2-c2cnc(N(C)C)nc2)CN1C | -2 | 0.41 |
| COc1ccc(NC(=O)Cn2c(=O)ncc3cc(S(=O)(=O)N4CCCC[C@@H]4C)ccc32)cc1Cl | -3 | 0.54 |
